From the supplement of paper PMC3334620
Whole data set: some 33,000 sequences, median “E-score (-0.5 to 0.5)” near -0.056, cut for the highest 2% near 0.38. Some of the results follow.

target: Stb4 (UniProt P50104); experiment: PBM E-score (8-mer binding enrichment) (E-score (-0.5 to 0.5)); higher = stronger / more preferred TF binding; most listed sequences are background and not binding sites; conditions: protein concentration: 200 nM; construct: GST-DNA-binding domain
Summary of the method: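 Full-length yeast transcription factors or their DNA-binding domains, GST-tagged and expressed with PURExpress, were applied at about 100-200 nM to universal all-10-mer Agilent arrays. These arrays had been made double-stranded by primer extension on fresh or once-stripped slides. Detection used fluorescent anti-GST, normalisation used masliner, and E-scores for ungapped eight-base words pooled with reverse complements came from the Universal PBM Analysis Suite.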

Point of comparison: ACCACGGA, “PBM E-score” value 0.286. Against it:
- CCAGGCAC — lower, -0.113
- CCCTCTCG — lower, 0.0314
- CTCATTGC — lower, -0.18
- GAATTTCA — lower, -0.0427
- ATTAGATA — lower, -0.215
- AGCCTCCA — lower, -0.234
- CAACCAAC — lower, -0.164
- TTCGGAAA — higher, 0.474
- GGTGTCAA — lower, -0.0888
- GAACTTCA — lower, 0.017
- GAGATAGC — lower, -0.116
- AGTGCCGA — higher, 0.423
- CCCGCTAG — lower, 0.0908
- CAGAGTTC — lower, -0.0589
- CGCCTCAC — lower, 0.041
- GCTAAAAC — lower, -0.0999
- ATTAGGGC — lower, -0.225
- AATATCCC — lower, 0.247
- ATTGAACC — lower, -0.107
- CAAATGCG — lower, -0.127
- AACGTCAG — lower, -0.155
- CATCGTTC — lower, -0.0179
- AGCCGCAC — lower, 0.132
- AACGCTGT — lower, -0.113
- GGGTCAAC — lower, 0.189
- TGAGGGCA — lower, -0.155
- ACATCTAC — lower, 0.0158
- GGGTTCGA — lower, -0.118
- TCCTACCA — lower, -0.269
- ATTCCTTG — lower, -0.121
- GCAGTTAA — lower, -0.126
- GAAGGAAA — lower, -0.075
- AGTCGGTC — lower, 0.181
- CGGTCTTA — lower, 0.0277
- AATGTTAC — lower, 0.114
- AGCTTCTC — lower, -0.0745
- GTCACGAA — lower, -0.00117
- CGGACAAA — lower, 0.226
- GGTGGCGA — lower, -0.0406
- CACATACC — lower, -0.0174
- GAACTTAC — lower, 0.0425
- AGCAAAAT — lower, 0.0589
- CGTGGGCC — lower, 0.0128
- CTGGACGA — lower, -0.261
- CGGAACAA — higher, 0.444
- AAAACGGC — lower, 0.149
- CTCTGGCA — lower, -0.147
- CTTTTACC — lower, 0.13
- TAAGATAA — lower, -0.0966
- CTGTTGTC — lower, -0.0287
- AATCAGCC — lower, 0.0593
- TTCTTCAA — lower, -0.0558
- AGGGTACA — lower, -0.149
- ACAGGGTC — lower, -0.0379
- ATCTTGAA — lower, -0.186
- GTTTATGA — lower, -0.0515
- CGTCTTAA — lower, -0.187
- CGATGTGA — lower, -0.0578
- ATACCTGG — lower, -0.14
- CAGTGAGA — lower, -0.161
- AACGTTGT — lower, -0.145
- CGAAGACG — lower, 0.0931
- TCCAAACA — lower, -0.145
- CGCTTTTC — lower, -0.0421
- GACAAGAC — lower, 0.151
- CTTCCTTC — lower, -0.0935
- CATACTTC — lower, -0.0611
- AGAAAGAT — lower, -0.224
- GTAACCAC — lower, -0.231
- TGCGGCAA — lower, 0.0334
- ACGGTAGT — lower, 0.0902
- AAGGTGTC — lower, -0.0281
- GCCCACAC — lower, -0.105
- AATAGGGG — lower, 0.0926
- CGCAGGAG — lower, -0.0827
- CTATGCTC — lower, -0.32
- AAACGCTG — lower, -0.212
- ATTAGGGA — lower, -0.0612
- CCTTCTAA — lower, -0.338
- ATATCATG — lower, -0.0971
- CGAATACA — lower, 0.103
- ATTATTAC — lower, 0.0199
- CATGAATG — lower, -0.226
- CCTAGGGC — lower, -0.153
- ATGTGCAG — lower, -0.166
- GCTGGCTA — lower, -0.267
- ATATGTAG — lower, -0.254
- AAAACACG — lower, -0.005
- CCAGCGGG — lower, 0.124
- ATGCAGAA — lower, -0.165
- GCAGTAAA — lower, 0.114
- AGCTTAAC — lower, -0.127
- AGTTTTCC — lower, 0.229
- CACACAAA — lower, -0.0727
- GTGCGCGA — lower, 0.0352
- CAGTTCAC — lower, -0.0842
- AGAGGCAC — lower, -0.224
- ATTAACAG — lower, -0.238
- ATATTGTG — lower, -0.134
- GTCAGCTA — lower, -0.259
- GTATGGCA — lower, -0.209
- CAGTATCA — lower, -0.139
- ATGCCACG — lower, -0.0957
- CACTTGTA — lower, -0.223
- ACTTTTCG — lower, 0.0867
- TTAGAAAA — lower, 0.117
- CTGAGCTA — lower, -0.245
- TAACTGAA — lower, -0.265
- GCAGTGCA — lower, -0.0523
- CGCTGATA — lower, -0.123
- ACGGCTGG — lower, -0.026
- CAGAGTAG — lower, -0.264
- ATGACATG — lower, -0.269
- AGGTACGG — lower, 0.252
- ACAGGCGG — lower, 0.134
- GACAGTCC — lower, -0.021
- ACGACAAG — lower, -0.144
- AAAGTGAC — lower, -0.123
- CCTAGTCA — lower, -0.367
- CTTCGAGA — lower, -0.257
- GTCAAAAA — lower, -0.141
- GCTTGGCA — lower, -0.31
- TAAATATA — lower, 0.0348
- ACTGGCCT — lower, -0.0527
- CATGTGTC — lower, -0.155
- CCCAGAGA — lower, -0.153
- AATATACC — lower, 0.0722
- ACCATACC — lower, 0.044
- ATGAACCA — lower, -0.00287
- ATCAGCAT — lower, -0.267
- AAAAGTTT — lower, -0.121
- ACGAGGAG — lower, -0.349
- AAGTGGGC — lower, -0.0583
- CGACCTCA — lower, 0.0302
- CCCTACGA — lower, -0.221
- TGCGAGAA — lower, -0.132
- CCTACTAA — lower, -0.0833
- CGAGCCCG — lower, 0.149
- ACTTATCG — lower, 0.134
- CCGGTTCC — higher, 0.347
- CCGTGGAA — lower, 0.252
- CCTGGCAG — lower, -0.289
- CCCTAACC — lower, -0.0559
- ACTGCAAA — lower, -0.125
- TATGCTGA — lower, -0.177
- AGACTCGG — higher, 0.344
- ACTCCTAC — lower, -0.203
- GCATAAGC — lower, -0.152
- CTGCCCAC — lower, -0.202
- ATACCAAG — lower, -0.121
- ACCACTCT — lower, -0.177
- ACGTCGAC — lower, -0.0974
- CAACATTA — lower, -0.135
- ATGGCGCC — lower, 0.0518
- AGACGGCA — lower, 0.0327
- CCGATCCG — higher, 0.445
- TATGTCAA — lower, 0.0756
- AATCGCGA — lower, 0.0215
- CCATAAGC — lower, -0.203
- AAGTCGCA — lower, 0.0407
- ATACCTCG — lower, 0.0825
- CCTATCGC — lower, -0.0745
- AAGCGGGC — lower, -0.0136
- GCCACAAC — lower, -0.118
- CCACAGGC — lower, -0.236
- AGAGCGCC — lower, 0.101
- AGTACCGA — higher, 0.362
- ACGAGCCA — lower, -0.307
- GATTGACC — lower, 0.0279
- GACTGATC — lower, -0.223
- AGCCATCG — lower, 0.0272
